Assay results as given in PubChem BioAssay AID485294 (National Center for Advancing Translational Sciences (NCATS), 2010).
The campaign covered roughly 370,000 compounds. About 150 (0.041%) were called active. This list was built around the results that the source calls inconclusive (neither active nor inactive); the mix of calls is not that of the screen. Calls come from the whole dose curve; as a rule, active = well fitted inhibition curve with a large enough effect; inconclusive = small, poorly fitted or top-dose-only effect; inactive = flat fitted curve, though single readings scatter. Potencies of inconclusive entries are left out as doubtful fits.

Biological target: Beta-lactamase (Escherichia coli (strain K12)) (UniProt P00811)
Assay: qHTS Inhibitors of AmpC Beta-Lactamase (assay with detergent); note: nearly all actives have a fitted effect of over 25% in size;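 for activity change, negative = inhibition: 0% = no-compound wells and -100% = no-enzyme wells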
Details: AmpC hydrolysis of nitrocefin, absorbance 480 nm, 0.01% Triton; activity change, negative = inhibition: at 114 µM (top of the series)
In short: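 20 mM phosphate pH 7.0 + 0.01% (detergent screen) or 0.0001% Triton X-100; 5.3 nM AmpC reagent; cpd preinc 15 min RT; nitrocefin (800 uM stock) to start; A480 q20 s × 4 min; Activity was normalised to no-enzyme and no-compound control wells.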
Potency is the fitted concentration of half-maximal effect; tags give direction and shape of the fitted curve.

Chain of UniProt P00811 (P00811 whole entry, looked up): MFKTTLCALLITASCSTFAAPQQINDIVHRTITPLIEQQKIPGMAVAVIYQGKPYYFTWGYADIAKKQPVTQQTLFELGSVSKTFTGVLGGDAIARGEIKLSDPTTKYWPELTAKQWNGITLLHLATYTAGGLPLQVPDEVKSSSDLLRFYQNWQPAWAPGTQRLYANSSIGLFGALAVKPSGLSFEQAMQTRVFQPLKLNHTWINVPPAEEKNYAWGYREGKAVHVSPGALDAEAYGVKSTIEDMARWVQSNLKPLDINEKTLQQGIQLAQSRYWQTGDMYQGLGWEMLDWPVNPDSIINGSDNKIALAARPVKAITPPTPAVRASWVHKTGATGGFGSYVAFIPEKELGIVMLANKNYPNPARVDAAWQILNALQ

Structure (SMILES) | activity change, negative = inhibition | Potency
O=S(=O)(Nc1c(S(=O)(=O)c2ccccc2)c2nc3ccccc3nc2n1C1CCCCC1)c1ccccc1 | inactive: -5.96% | 
CCCCn1c(SCC(=O)Nc2nc(C)cs2)nnc1-c1cccnc1 |  | inconclusive [inhibitor, partial curve, poor fit]
CN(Cc1cccs1)C(=O)Cn1cnc2cc([N+](=O)[O-])ccc2c1=O |  | inconclusive [inhibitor, full curve, poor fit]
COc1cccc(Nc2nnc(SCc3cc([N+](=O)[O-])cc4c3OCOC4)s2)c1 |  | inconclusive [inhibitor, full curve]
O=C(CSc1nc(-c2ccccc2Cl)ns1)Nc1ccc2c(c1)OCO2 | inactive: 0.284% | 
COC(=O)c1cc2sc(Cl)cc2n1CC(=O)Nc1ccc(OC)c(OC)c1OC |  | inconclusive [inhibitor, partial curve]
COc1ccccc1CNC(=O)C1CCC(CNS(=O)(=O)c2ccc3c(c2)CCCC(=O)N3)CC1 (configuration not stated) | inactive: 2.4% | 
CC1CCN(C(=S)c2ccc(-c3ccc(Cl)cc3Cl)o2)CC1 |  | inconclusive [inhibitor, full curve]
Cc1ccc2nc(N3CCN(c4cccc(Cl)c4)CC3)c(-n3nc(C)cc3C)nc2c1 | inactive: 19.7% | 
Clc1ccc(-c2csc(N/N=C/c3ccco3)n2)cc1 | inactive: -5.7% | 
Cc1ccc(-n2c(C)cc3c2CC(C)(C)CC3=O)cc1C |  | inconclusive [inhibitor, full curve, poor fit]
CCC(=NCCOc1ccc(Cl)cc1)c1c(O)n(C)c(=O)n(C)c1=O | inactive: -4.38% | 
CCOC(=O)CNC(=O)COc1coc(CN2CCN(c3ccccc3F)CC2)cc1=O |  | inconclusive [inhibitor, full curve, poor fit]
COc1ccccc1OCCSc1nc(N)cc(N)n1 |  | inconclusive [inhibitor, full curve, poor fit]
O=C(O)CSCC(=O)Nc1cccc2ccccc12 |  | inconclusive [inhibitor, partial curve, poor fit]
Cc1[nH]c2ccccc2c1CCNC(=O)c1ccc2nccnc2c1 |  | inconclusive [inhibitor, full curve]
COc1ccc(OC)c2sc(N3CCN(C(=O)C(C)(C)C)CC3)nc12 | inactive: 1.26% | 
Cc1ccccc1NCC(=O)N=Nc1c(O)[nH]c2ccc([N+](=O)[O-])cc12 | inactive: 1.43% | 
CCCCCCn1c(C(C)NC(=O)c2ccco2)nc2ccccc21 (configuration not stated) | inactive: 3.69% | 
COc1ccc(N(CC(=O)NN=C2CCCC2)S(=O)(=O)c2ccccc2)cc1Cl | inactive: -15.3% | 
CCc1nc(SCc2cc(Cl)ccc2OC)n[nH]1 |  | inconclusive [inhibitor, partial curve]
CN(C)c1ccc(C(CNS(=O)(=O)c2ccc3ccccc3c2)N2CCOCC2)cc1 (configuration not stated) |  | inconclusive [inhibitor, full curve]
O=C(Nc1ccccc1Cc1ccccc1)c1oc2ccccc2c1COc1ccccc1 | inactive: -4.63% | 
CCO[C@@H]1OC(C(=O)NCc2nc3ccccc3[nH]2)=C[C@H](C2CC2)[C@H]1CCCO | inactive: -9.83% | 

Structure (SMILES) | activity change, negative = inhibition | Potency
COc1ccc(C(=O)C/C(=C\C(=O)c2ccc(C)cc2)c2ccccc2)cc1 |  | inconclusive [inhibitor, partial curve, poor fit]
CCS(=O)(=O)NCc1nnc2n1-c1ccc(Cl)cc1C(c1ccccc1)=NC2 |  | inconclusive [inhibitor, full curve]
CCOC(=O)C1CCCN(CC(=O)Nc2ccc(C(=O)Nc3ccccc3OC)cc2)C1 (configuration not stated) |  | inconclusive [inhibitor, full curve, poor fit]
CCOC(=O)c1ccc(NC(=O)CN2C(=O)CSCC2=O)cc1 | inactive: -5.74% | 
O=C(Nc1cccc(F)c1)NC1(C(=O)N2CCN3CCCC3C2)CCCCC1 (configuration not stated) |  | inconclusive [inhibitor, partial curve, poor fit]
COc1ccc(CNC(=O)CCn2cccn2)cc1 | inactive: 6.84% | 
Cc1ccc(C(C)C)c(OCC(=O)NCC2(N(C)C)CCCCC2)c1 | inactive: 20.6% | 
CCOc1ccc(C(=O)NCC(=O)OC(C)C(=O)NCc2ccco2)cc1OCC (configuration not stated) |  | inconclusive [inhibitor, full curve]
COc1ccc2cc(C(=O)NCC3CCCO3)[nH]c2c1 (configuration not stated) |  | inconclusive [inhibitor, single point]
Cc1ccccc1C(=O)n1nc(-c2ccco2)nc1NCc1ccc(Cl)cc1 | inactive: 16.4% | 
CC(C)(C)OC(=O)N[C@@H](Cc1ccccc1)C(=O)N1CCC(C(=O)O)CC1 | inactive: -1.97% | 
CCn1c(SCc2ccc(F)cc2)nnc1C1CCN(S(=O)(=O)c2ccc(OC)cc2)CC1 | inactive: -0.302% | 
COc1ccc(N2CCN(C(=O)COC(=O)Cc3cccc(OC)c3)CC2)cc1 |  | inconclusive [inhibitor, full curve]
COc1ccc(CN(C)Cc2nc(Cc3cccc(F)c3)no2)c2cccnc12 | inactive: -4.01% | 
Cc1ccc2[nH]c(=O)c(CN(Cc3ccc4c(c3)OCO4)Cc3nnnn3Cc3ccco3)cc2c1 |  | inconclusive [inhibitor, partial curve]
CCOC(=O)Nc1ccc2c(c1)N(C(=O)CN(C)C)c1ccccc1CC2 |  | inconclusive [inhibitor, single point]
Fc1ccc(-c2noc3ncnc(NCCc4ccccc4)c23)cc1 | inactive: -6.95% | 
COc1ccc(Nc2nc(-c3ccc(C)cc3)nc3ccccc23)c(OC)c1 | inactive: 9.23% | 
CCCCCn1c(C(C)NC(=O)c2ccccc2)nc2ccccc21 (configuration not stated) | inactive: -3.89% | 
CCNC(=S)N/N=C/c1ccccc1[N+](=O)[O-] |  | inconclusive [inhibitor, full curve, poor fit]
CC(=O)c1ccc(OCC(O)CN2CCOCC2)cc1 (configuration not stated) |  | inconclusive [inhibitor, partial curve]
CCNC(=O)c1c(NC(=O)C2COc3ccccc3O2)sc2c1CCCC2 (configuration not stated) |  | inconclusive [inhibitor, partial curve, poor fit]
Cc1cc(C)c2nc(-c3ccccn3)cc(C(=O)NCc3ccc(S(N)(=O)=O)cc3)c2c1 | inactive: -9.06% | 
